# Laboratory results reported in PubChem BioAssay.
# Inconclusive results, whose numbers are uncertain, are shown with a selection of clear calls. Activity calls are given as the source filed them.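 The calls were made as follows, unless noted: active = thallium entry rate above the same plate's blocked-transporter control wells by more than 3 SD; inconclusive = the two repeat wells disagree; inactive = the rest.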
# Tested on: not listed separately
# Assay: FluoZin2 fluorescence counter-screen of MLSMR hits on KCC2-expressing cells (AID 1714);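 also: raw slope of fluorescence over initial fluorescence between 10 and 20 s after thallium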
# Conditions: HEK293-KCC2 + bumetanide/ouabain, at 10 µM, active compounds read high
# How it was run: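 material = KCC2-expressing HEK cells | reagent = thallium stimulus | compound dosing = 10 µM single dose | schedule = cells overnight at 37 °C, FluoZin2-AM dye loading 48 min | technique = kinetic FluoZin2 fluorescence, ex 480/em 540 nm | evaluation = normalized thallium flux slope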
row,Compound,normalized thallium flux
1,CCOC(=O)c1cc2c(=O)[nH]ccc2nc1C,inconclusive: 0.00692
2,CCOC(=O)c1ccccc1N1C(=O)C2Sc3[nH]c(=O)sc3C(/C=C/c3ccccc3)C2C1=O (centres undefined),inconclusive: 0.00673
3,O=S(=O)(c1ccccc1)N1CCN=C1SCc1ccccc1,inconclusive: 0.00364
4,Oc1ccc(-c2csc(-c3ccccc3)n2)cc1O,inconclusive: 0.00733
5,O=C(Cn1nnc2c(cnn2-c2ccccc2)c1=O)N1CCN(c2ccccc2F)CC1,inconclusive: 0.00478
6,O=C(NCCOc1ccc(F)cc1)c1ccccc1SCc1ccccc1,inconclusive: 0.00304
7,C(=N\Nc1nc(-c2ccccc2)cs1)/c1ccco1,inactive: 0.00526
8,Cc1cc2ccccn2c1C(=O)c1nc(N2CCOCC2)ncc1Cl,inconclusive: 0.00527
9,O=C(OC(C(=O)NC1CCCC1)c1cccnc1)C1=Cc2ccccc2OC1 (centres undefined),inconclusive: 0.00866
10,CCCn1nc([N+](=O)[O-])c(C(C#N)c2nc3ccccc3o2)c(Cl)c1=O (centres undefined),inconclusive: 0.00541
11,C=CCn1c(Cc2cccs2)nnc1SC/C=C/c1ccccc1,inconclusive: 0.00345
12,O=c1cc(-c2c(F)c(F)c(F)c(F)c2F)oc2c(F)c(F)c(F)c(F)c12,inconclusive: 0.00575
13,O=S(=O)(c1cccc(S(=O)(=O)N2CCC(n3nnc4ccccc43)CC2)c1)N1CCCCC1,inactive: 0.00678
14,Cn1cc(S(=O)(=O)N2CCc3ccccc3C2)c(=O)n(C)c1=O,inconclusive: 0.00765
15,COc1ccc(CNC(=S)NC(C)CCc2ccccc2)cc1 (centres undefined),inconclusive: 0.00424
16,COCCCn1[nH]c2c3c(ccc2c1=O)C(=O)c1ccccc1C3=O,inconclusive: 0.00553
17,CCOc1ccccc1NC(=O)CSc1nccn1-c1ccccc1,inconclusive: 0.00284
18,CC1CCN(C(=O)CSc2ccc(-c3ccc(F)cc3)nn2)CC1,inconclusive: 0.00493
19,O=c1c2ccccc2nnn1Cc1ccccn1,inconclusive: 0.00779
20,COC(=O)CSc1ccnc2cc(Cl)ccc12,inconclusive: 0.0088

row,Compound,normalized thallium flux
1,CCc1ccc(OCCNC(=O)c2ccccc2SCc2ccccc2)cc1,inconclusive: 0.00802
2,CCC(c1nnnn1Cc1ccccc1)N1CCN(c2ccccc2)CC1 (centres undefined),inactive: 0.00415
3,O=C(NC1CCCCCC1)C1CCN(c2nc3ccccc3o2)CC1,inactive: 0.00568
4,O=C(c1ccccc1SCc1ccc(F)cc1)N1CCOCC1,inconclusive: 0.00555
5,O=C(Nc1cccnc1)c1ccc(COc2cc(Cl)ccc2Cl)o1,inactive: 0.00506
6,Cc1c(/C=N/NC(=O)c2ccccc2O)c2ccccn2c1C(=O)c1ccc(F)cc1,inconclusive: 0.00607
7,CN(C)c1ccc(/C=N/NC(=O)c2ccccc2O)o1,inconclusive: 0.00779
8,O=C(OCn1ncc(Cl)c(Cl)c1=O)c1cccc(C(F)(F)F)c1,inconclusive: 0.00635
9,Cc1ccc(C(=O)CC2(O)C(=O)N(C)c3ccc(Br)cc32)c(C)c1 (centres undefined),inconclusive: 0.00809
10,O=C(O)c1ccc(C[n+]2c(-c3ccccc3)csc2Nc2ccccc2)cc1,inconclusive: 0.00843
11,O=C(NCCc1c[nH]c2ccccc12)c1cc(S(=O)(=O)N2CCCCC2)ccc1N1CCOCC1,inactive: 0.00457
12,COc1ccc(OC)c(-n2nnnc2SCC(=O)NCCc2ccccc2)c1,inactive: 0.00506
13,c1ccc(CSc2nnc(-c3ccco3)n2Cc2ccco2)cc1,inconclusive: 0.0035
14,N#Cc1nc(-c2cccs2)oc1N1CCN(Cc2ccccc2)CC1,inconclusive: 0.00498
15,O=CN1CCN(C(=O)CN2C(=O)c3ccccc3C2=O)CC1,inconclusive: 0.00526
16,O=C(Nc1nc2ccsc2c(=O)s1)c1ccc(F)cc1,inconclusive: 0.00748
17,COC(=O)C1=C(C)N(C2CCCCC2)C(=O)C1,inactive: 0.0068
18,COC(=O)c1ccccc1NC(=O)CSc1ccc(C)cc1,inconclusive: 0.00397
19,O=C(O)c1cc(-c2ccc(/C=N/N3C(=O)C4C5C=CC(CC5)C4C3=O)o2)ccc1Cl (centres undefined),inconclusive: 0.00769

# Molecular target: Solute carrier family 12 member 5 (Homo sapiens) (UniProt Q9H2X9)
# Chain of UniProt Q9H2X9 (Q9H2X9 whole entry, looked up): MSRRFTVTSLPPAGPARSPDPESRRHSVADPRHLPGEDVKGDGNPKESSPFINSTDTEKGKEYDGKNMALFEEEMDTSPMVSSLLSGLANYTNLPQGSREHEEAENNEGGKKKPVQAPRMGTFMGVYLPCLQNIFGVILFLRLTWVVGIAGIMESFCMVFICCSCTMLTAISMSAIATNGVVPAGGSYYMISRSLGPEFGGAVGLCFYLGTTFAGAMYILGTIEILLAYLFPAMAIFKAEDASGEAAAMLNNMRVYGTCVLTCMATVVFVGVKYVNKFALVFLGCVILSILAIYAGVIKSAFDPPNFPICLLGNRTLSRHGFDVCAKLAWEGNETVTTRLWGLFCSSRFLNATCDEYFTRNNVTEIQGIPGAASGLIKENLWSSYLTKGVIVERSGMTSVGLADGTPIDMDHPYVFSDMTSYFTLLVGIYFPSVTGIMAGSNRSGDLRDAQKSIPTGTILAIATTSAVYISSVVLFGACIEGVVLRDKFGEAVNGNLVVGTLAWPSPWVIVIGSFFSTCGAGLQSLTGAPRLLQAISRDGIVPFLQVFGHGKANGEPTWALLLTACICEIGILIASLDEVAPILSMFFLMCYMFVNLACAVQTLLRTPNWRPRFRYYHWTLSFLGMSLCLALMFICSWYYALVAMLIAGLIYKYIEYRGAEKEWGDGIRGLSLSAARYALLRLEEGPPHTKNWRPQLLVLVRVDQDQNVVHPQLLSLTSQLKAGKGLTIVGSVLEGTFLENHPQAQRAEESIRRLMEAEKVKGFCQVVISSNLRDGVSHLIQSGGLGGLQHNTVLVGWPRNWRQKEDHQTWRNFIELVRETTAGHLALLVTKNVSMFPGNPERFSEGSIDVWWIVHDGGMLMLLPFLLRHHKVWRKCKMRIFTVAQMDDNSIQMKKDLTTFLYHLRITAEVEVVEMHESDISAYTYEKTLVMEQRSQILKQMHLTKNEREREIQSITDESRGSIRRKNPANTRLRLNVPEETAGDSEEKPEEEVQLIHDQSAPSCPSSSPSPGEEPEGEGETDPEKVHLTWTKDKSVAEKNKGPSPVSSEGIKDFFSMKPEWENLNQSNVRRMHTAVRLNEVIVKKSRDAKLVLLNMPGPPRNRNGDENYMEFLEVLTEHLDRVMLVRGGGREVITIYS
# Assay: retest of KCC2 transport modulation, ouabain-free – cell-based, HEK293 KCC2, thallium flux, FluoZin2, secondary assay 2, confirmation (AID 1715;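 active = thallium flux slope more than 3 SD above or below the plate's solvent-only control mean, mostly below; inconclusive = the two repeat wells disagreed; inactive = no significant shift from solvent-only controls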;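 also: raw slope with 0.1% DMSO as baseline and bumetanide as block control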)
# Conditions: HEK293-KCC2, thallium flux FluoZin2 fluorescence; at 10 µM; actives lie on both sides; F/F0 rise rate, 10–20 s post-thallium
row,Compound,normalized thallium flux
1,C(=N\Nc1nc(-c2ccccc2)cs1)/c1ccco1,inconclusive: 0.0294
2,C=CCn1c(Cc2cccs2)nnc1SC/C=C/c1ccccc1,inconclusive: 0.0267
3,COc1ccc(CNC(=S)NC(C)CCc2ccccc2)cc1 (centres undefined),inconclusive: 0.0289
4,CC1CCN(C(=O)CSc2ccc(-c3ccc(F)cc3)nn2)CC1,active: 0.0209
5,CCC(c1nnnn1Cc1ccccc1)N1CCN(c2ccccc2)CC1 (centres undefined),inconclusive: 0.0267
6,O=C(NC1CCCCCC1)C1CCN(c2nc3ccccc3o2)CC1,inconclusive: 0.0314
7,O=C(c1ccccc1SCc1ccc(F)cc1)N1CCOCC1,active: 0.0238
8,O=C(Nc1cccnc1)c1ccc(COc2cc(Cl)ccc2Cl)o1,inconclusive: 0.025
9,O=C(NCCc1c[nH]c2ccccc12)c1cc(S(=O)(=O)N2CCCCC2)ccc1N1CCOCC1,inconclusive: 0.0272
10,COc1ccc(OC)c(-n2nnnc2SCC(=O)NCCc2ccccc2)c1,inconclusive: 0.0268
